Source: patent US10428149 (dated 2019)

B1: scTRAIL3-FAVSGAA-"W"-Fc (designed binder)
chain: METDTLLLWVLLLWVPGSTGDYKDDDDKGGGGSGTGGAAAHITGTRGRSNTLSSPNSKNEKALGRKINSWESSRSGHSFLSNLHLRNGELVIHEKGFYYIYSQTYFRFQEEIKENTKNDKQMVQYIYKYTSYPDPILLMKSARNSCWSKDAEYGLYSIYQGGIFELKENDRIFVSVTNEHLIDMDHEASFFGAFAVSGAAAHITGTRGRSNTLSSPNSKNEKALGRKINSWESSRSGHSFLSNLHLRNGELVIHEKGFYYIYSQTYFRFQEEIKENTKNDKQMVQYIYKYTSYPDPILLMKSARNSCWSKDAEYGLYSIYQGGIFELKENDRIFVSVTNEHLIDMDHEASFFGAFAVSGAAAHITGTRGRSNTLSSPNSKNEKALGRKINSWESSRSGHSFLSNLHLRNGELVIHEKGFYYIYSQTYFRFQEEIKENTKNDKQMVQYIYKYTSYPDPILLMKSARNSCWSKDAEYGLYSIYQGGIFELKENDRIFVSVTNEHLIDMDHEASFFGAFAVSGGSGEAAAKEAAAKEAAAKEAAAKEAAAKGSGG[sequence of human IgG1 Fc omitted]
B2: Fc-scTRAIL3-FAVSGAA (designed binder)
chain: METDTLLLWVLLLWVPGSTGDYKDDDDKGGGGSGT[sequence of human IgG1 Fc omitted]GSGNGTSNGTSGSSGGAAAHITGTRGRSNTLSSPNSKNEKALGRKINSWESSRSGHSFLSNLHLRNGELVIHEKGFYYIYSQTYFRFQEEIKENTKNDKQMVQYIYKYTSYPDPILLMKSARNSCWSKDAEYGLYSIYQGGIFELKENDRIFVSVTNEHLIDMDHEASFFGAFAVSGAAAHITGTRGRSNTLSSPNSKNEKALGRKINSWESSRSGHSFLSNLHLRNGELVIHEKGFYYIYSQTYFRFQEEIKENTKNDKQMVQYIYKYTSYPDPILLMKSARNSCWSKDAEYGLYSIYQGGIFELKENDRIFVSVTNEHLIDMDHEASFFGAFAVSGAAAHITGTRGRSNTLSSPNSKNEKALGRKINSWESSRSGHSFLSNLHLRNGELVIHEKGFYYIYSQTYFRFQEEIKENTKNDKQMVQYIYKYTSYPDPILLMKSARNSCWSKDAEYGLYSIYQGGIFELKENDRIFVSVTNEHLIDMDHEASFFGAFAVS
B3: scFvhu225-Fc-scTRAIL3-FLVGGGPQRVA (antibody)
chain: DYKDDDDKGGGGSGTEVQLVESGGGLVQPGGSLRLSCAASGFSLTNYGVHWVRQAPGKGLEWLGVIWSGGNTDYNTPFTSRFTISRDNSKNTLYLQMNSLRAEDTAVYYCARALTYYDYEFAYWGQGTTVTVSSGGGGSGGGGSGGGGSDIQLTQSPSFLSASVGDRVTITCRASQSIGTNIHWYQQKPGKAPKLLIKYASESISGVPSRFSGSGSGTEFTLTISSLQPEDFATYYCQQNNNWPTTFGAGTKLEIKRAAAGGSGG[sequence of human IgG1 Fc omitted]GGSGGGSSGGGPQRVAAHITGTRGRSNTLSSPNSKNEKALGRKINSWESSRSGHSFLSNLHLRNGELVIHEKGFYYIYSQTYFRFQEEIKENTKNDKQMVQYIYKYTSYPDPILLMKSARNSCWSKDAEYGLYSIYQGGIFELKENDRIFVSVTNEHLIDMDHEASFFGAFLVGGGPQRVAAHITGTRGRSNTLSSPNSKNEKALGRKINSWESSRSGHSFLSNLHLRNGELVIHEKGFYYIYSQTYFRFQEEIKENTKNDKQMVQYIYKYTSYPDPILLMKSARNSCWSKDAEYGLYSIYQGGIFELKENDRIFVSVTNEHLIDMDHEASFFGAFLVGGGPQRVAAHITGTRGRSNTLSSPNSKNEKALGRKINSWESSRSGHSFLSNLHLRNGELVIHEKGFYYIYSQTYFRFQEEIKENTKNDKQMVQYIYKYTSYPDPILLMKSARNSCWSKDAEYGLYSIYQGGIFELKENDRIFVSVTNEHLIDMDHEASFFGAFLVG
B4: Fc-scTRAIL3-FLVGGGPQRVA (designed binder)
chain: DYKDDDDKGGGGSGT[sequence of human IgG1 Fc omitted]GGSGGGSSGGGPQRVAAHITGTRGRSNTLSSPNSKNEKALGRKINSWESSRSGHSFLSNLHLRNGELVIHEKGFYYIYSQTYFRFQEEIKENTKNDKQMVQYIYKYTSYPDPILLMKSARNSCWSKDAEYGLYSIYQGGIFELKENDRIFVSVTNEHLIDMDHEASFFGAFLVGGGPQRVAAHITGTRGRSNTLSSPNSKNEKALGRKINSWESSRSGHSFLSNLHLRNGELVIHEKGFYYIYSQTYFRFQEEIKENTKNDKQMVQYIYKYTSYPDPILLMKSARNSCWSKDAEYGLYSIYQGGIFELKENDRIFVSVTNEHLIDMDHEASFFGAFLVGGGPQRVAAHITGTRGRSNTLSSPNSKNEKALGRKINSWESSRSGHSFLSNLHLRNGELVIHEKGFYYIYSQTYFRFQEEIKENTKNDKQMVQYIYKYTSYPDPILLMKSARNSCWSKDAEYGLYSIYQGGIFELKENDRIFVSVTNEHLIDMDHEASFFGAFLVG
B5: scTRAIL3-FAVSGAA-Fc (designed binder)
chain: METDTLLLWVLLLWVPGSTGDYKDDDDKGGGGSGTGGAAAHITGTRGRSNTLSSPNSKNEKALGRKINSWESSRSGHSFLSNLHLRNGELVIHEKGFYYIYSQTYFRFQEEIKENTKNDKQMVQYIYKYTSYPDPILLMKSARNSCWSKDAEYGLYSIYQGGIFELKENDRIFVSVTNEHLIDMDHEASFFGAFAVSGAAAHITGTRGRSNTLSSPNSKNEKALGRKINSWESSRSGHSFLSNLHLRNGELVIHEKGFYYIYSQTYFRFQEEIKENTKNDKQMVQYIYKYTSYPDPILLMKSARNSCWSKDAEYGLYSIYQGGIFELKENDRIFVSVTNEHLIDMDHEASFFGAFAVSGAAAHITGTRGRSNTLSSPNSKNEKALGRKINSWESSRSGHSFLSNLHLRNGELVIHEKGFYYIYSQTYFRFQEEIKENTKNDKQMVQYIYKYTSYPDPILLMKSARNSCWSKDAEYGLYSIYQGGIFELKENDRIFVSVTNEHLIDMDHEASFFGAFAVSGSGNGTSNGTSGSSGG[sequence of human IgG1 Fc omitted]
B6: scTRAIL3-FAVSGAA-25 G/S-Fc (designed binder)
chain: METDTLLLWVLLLWVPGSTGDYKDDDDKGGGGSGTGGAAAHITGTRGRSNTLSSPNSKNEKALGRKINSWESSRSGHSFLSNLHLRNGELVIHEKGFYYIYSQTYFRFQEEIKENTKNDKQMVQYIYKYTSYPDPILLMKSARNSCWSKDAEYGLYSIYQGGIFELKENDRIFVSVTNEHLIDMDHEASFFGAFAVSGAAAHITGTRGRSNTLSSPNSKNEKALGRKINSWESSRSGHSFLSNLHLRNGELVIHEKGFYYIYSQTYFRFQEEIKENTKNDKQMVQYIYKYTSYPDPILLMKSARNSCWSKDAEYGLYSIYQGGIFELKENDRIFVSVTNEHLIDMDHEASFFGAFAVSGAAAHITGTRGRSNTLSSPNSKNEKALGRKINSWESSRSGHSFLSNLHLRNGELVIHEKGFYYIYSQTYFRFQEEIKENTKNDKQMVQYIYKYTSYPDPILLMKSARNSCWSKDAEYGLYSIYQGGIFELKENDRIFVSVTNEHLIDMDHEASFFGAFAVSGGSGGGGSGGGGSGGGGSGGGGSGG[sequence of human IgG1 Fc omitted]
B7: scTRAIL3-FAVSGAA-20 G/S-Fc (designed binder)
chain: METDTLLLWVLLLWVPGSTGDYKDDDDKGGGGSGTGGAAAHITGTRGRSNTLSSPNSKNEKALGRKINSWESSRSGHSFLSNLHLRNGELVIHEKGFYYIYSQTYFRFQEEIKENTKNDKQMVQYIYKYTSYPDPILLMKSARNSCWSKDAEYGLYSIYQGGIFELKENDRIFVSVTNEHLIDMDHEASFFGAFAVSGAAAHITGTRGRSNTLSSPNSKNEKALGRKINSWESSRSGHSFLSNLHLRNGELVIHEKGFYYIYSQTYFRFQEEIKENTKNDKQMVQYIYKYTSYPDPILLMKSARNSCWSKDAEYGLYSIYQGGIFELKENDRIFVSVTNEHLIDMDHEASFFGAFAVSGAAAHITGTRGRSNTLSSPNSKNEKALGRKINSWESSRSGHSFLSNLHLRNGELVIHEKGFYYIYSQTYFRFQEEIKENTKNDKQMVQYIYKYTSYPDPILLMKSARNSCWSKDAEYGLYSIYQGGIFELKENDRIFVSVTNEHLIDMDHEASFFGAFAVSGGSGGGGSGGGGSGGGGSGG[sequence of human IgG1 Fc omitted]

Columns and labels:
[1] = target: TRAIL-R1 (DR4) (human, UniProt O00220); test: ELISA
[2] = target: T1, TRAIL-R2 (DR5) (human, UniProt O14763); test: ELISA
[3] = target: T2, EGFR (human, UniProt P00533); test: ELISA
[4] = target: T2, EGFR; test: FACS, Colo205 cells
[5] = target: T1, TRAIL-R2 (DR5); test: ELISA; remark: listed apart in the source
[6] = target: T1, TRAIL-R2 (DR5); test: FACS, Colo205 cells

Binder	EC50 [1]	EC50 [2]	EC50 [3]	EC50 [4]	EC50 [5]	EC50 [6]
B1	3.91 nM	0.54 nM	–	–	–	–
B2	2.15 nM	0.34 nM	–	–	–	–
B3	–	–	0.86 nM	1.33 nM	1.52 nM	–
B4	1.63 nM	0.34 nM	–	–	2.42 nM	> 100 nM
B5	6.36 nM	0.69 nM	–	–	–	–
B6	3.24 nM	0.42 nM	–	–	–	–
B7	4.45 nM	0.43 nM	–	–	–	–
